According to PMC4336329 (PLoS ONE, 2015):
Hit rate of the full screen: of about 310,000 compounds, about 2,200 (0.71%) showed an effect of 50% or more. The effect is printed as a negative number. Some of the results follow.

The compounds below were run against human ether-à-go-go-related gene (hERG) potassium channel (human, UniProt Q12809) (assay: primary screen, population patch clamp on CHO cells stably expressing hERG).
Chain of human ether-à-go-go-related gene (hERG) potassium channel (Q12809 whole entry, looked up): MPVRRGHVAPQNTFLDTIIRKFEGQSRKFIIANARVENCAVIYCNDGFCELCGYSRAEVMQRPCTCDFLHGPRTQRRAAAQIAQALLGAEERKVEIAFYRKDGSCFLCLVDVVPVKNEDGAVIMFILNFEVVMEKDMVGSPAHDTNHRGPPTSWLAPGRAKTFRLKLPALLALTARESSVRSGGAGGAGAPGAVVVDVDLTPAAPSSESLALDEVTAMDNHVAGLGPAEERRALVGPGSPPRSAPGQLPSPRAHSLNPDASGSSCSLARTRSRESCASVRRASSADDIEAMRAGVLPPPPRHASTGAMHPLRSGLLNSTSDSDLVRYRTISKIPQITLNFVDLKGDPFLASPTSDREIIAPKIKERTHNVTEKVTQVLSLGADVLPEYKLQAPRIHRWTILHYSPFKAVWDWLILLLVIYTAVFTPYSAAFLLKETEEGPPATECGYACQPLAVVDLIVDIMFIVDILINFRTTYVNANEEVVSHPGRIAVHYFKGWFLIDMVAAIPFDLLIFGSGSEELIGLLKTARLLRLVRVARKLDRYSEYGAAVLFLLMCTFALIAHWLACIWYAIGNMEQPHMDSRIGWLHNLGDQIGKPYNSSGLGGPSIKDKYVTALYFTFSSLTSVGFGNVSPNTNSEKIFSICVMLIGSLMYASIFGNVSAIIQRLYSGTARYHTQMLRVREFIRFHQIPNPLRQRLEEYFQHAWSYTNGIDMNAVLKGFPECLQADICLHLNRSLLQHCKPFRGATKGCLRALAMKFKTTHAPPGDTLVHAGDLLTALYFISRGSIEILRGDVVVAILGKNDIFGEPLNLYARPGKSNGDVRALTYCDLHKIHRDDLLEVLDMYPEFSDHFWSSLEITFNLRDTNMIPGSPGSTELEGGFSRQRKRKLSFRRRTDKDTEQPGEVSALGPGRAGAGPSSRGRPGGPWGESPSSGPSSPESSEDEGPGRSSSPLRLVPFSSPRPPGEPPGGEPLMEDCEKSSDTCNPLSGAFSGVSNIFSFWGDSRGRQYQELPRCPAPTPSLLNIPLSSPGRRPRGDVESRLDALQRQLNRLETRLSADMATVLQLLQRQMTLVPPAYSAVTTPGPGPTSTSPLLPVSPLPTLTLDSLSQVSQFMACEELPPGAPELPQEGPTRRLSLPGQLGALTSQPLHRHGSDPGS

Compound | hERG current change (%, negative = inhibition) at 1uM
Cc1ccn2c(=O)c(C(=O)NCCN3CCOCC3)c(O)nc2c1 | 18.8%
CC(=O)Nc1ccc(S(=O)(=O)n2cnc(C)c2)cc1 | -8.9%
CC(=O)Oc1ccc(-c2cccc(C(=O)OCC(=O)Nc3ccccc3Oc3ccccc3)c2)cc1 | 7.3%
Cc1ccc(N2C(=O)C3CCCN3C2=S)c(C)c1 (centres unmarked) | 17.5%
Cc1ccc(CN2C(=O)CCC2C(=O)NCC2CCCO2)cc1 (centres unmarked) | 3.33%
CCCNNC(=O)C(O)(c1cccc(C)c1)c1cccc(C)c1 | 8.76%
O=P1(NC2CCCC2)COc2ccccc2OC1 | 7.09%
Cc1cc(C)c(C)c(N=Nc2nc3ccccc3n2C)c1C | 6.18%
CCOC(=O)c1sc(NC(=O)CCCn2nc([N+](=O)[O-])cc2C)c(C(=O)OCC)c1C | 1.73%
C=CCNC(=O)/C(C#N)=C/c1ccccc1OCc1ccc(C(=O)OC)cc1 | -3.67%
CC(C)NC(=O)c1nn2c(C(F)(F)F)cc(-c3ccco3)nc2c1Cl | 12.5%
COC(=O)Cc1c(C)c2ccc(OCC(=O)N(C)C3CCS(=O)(=O)C3)cc2oc1=O (centres unmarked) | 18.4%
O=C1CN(S(=O)(=O)c2ccc(F)cc2)c2ccccc2N1 | 0.33%
S=C(NN=C1CCN(Cc2ccccc2)CC1)NC1CCCCC1 | 7.39%
O=C(Nc1ncccn1)c1cccc(F)c1 | 0.714%
CN1C[C@H](CNC(=O)OCc2ccccc2)C[C@@H]2c3cccc4c3c(cn4C)C[C@H]21 | -1.63%
C/C(=N\NC(=O)c1ccncc1)c1cccc(NC(=O)c2ccc(Cl)s2)c1 | 4.44%
Cc1cc(C(=O)NC(C)C2CCCO2)cs1 (centres unmarked) | 4.23%
CCc1ccc(C(=O)Nc2ccc3nc(C)ccc3c2)cc1 | 10.3%
COc1ccc(NC(=O)N2CCN(S(=O)(=O)c3ccc(F)cc3)CC2)c(OC)c1 | 8.34%
CC(C)Sc1nc2ccccc2n2cnnc12 | 13.3%
Cc1ccc2c(c1)CCCN2C(=O)C1CCCO1 (centres unmarked) | 15.3%
CCN(c1ccccc1)S(=O)(=O)c1ccc2[nH]c(=O)c(=O)[nH]c2c1 | 8.57%

Compound | hERG current change (%, negative = inhibition) at 1uM
COc1ccc2oc(=Nc3ccccc3)c(-c3nc4ccccc4[nH]3)cc2c1 | 18.1%
c1ccc2sc(SCc3ccc(-c4nnco4)cc3)nc2c1 | 6.03%
COc1ccccc1NS(=O)(=O)c1cc(NC(=O)CNC(=O)c2ccccc2)ccc1C | 14.4%
O=C(Cc1cc(=O)[nH][nH]1)N/N=C/c1cccc(Cl)c1Cl | 7.82%
Cc1noc(C)c1CSc1nc2ccccc2n1CCc1ccccc1 | -6.26%
CN(CCS(=O)(=O)c1ccc(Cl)cc1)Cc1cccnc1 | 11.5%
CC1CCCCC12NC(=O)N(CC(=O)Nc1ccc(S(=O)(=O)N3CCOCC3)cc1)C2=O (centres unmarked) | -3.77%
Cc1[nH]nc(SCC(=O)N2CCOCC2)c1[N+](=O)[O-] | 11.7%
NS(=O)(=O)c1ccc(N/N=C/c2ccncc2)cc1 | 17.1%
CC(Sc1nnc(C2CC2)n1C1CC1)C(=O)N(C)Cc1cccc(F)c1 (centres unmarked) | -2.8%
Cc1cc(N=Cc2c(O)ccc3ccccc23)no1 | 2.62%
COc1ccccc1N1CCN(C(=O)Cn2c(=O)oc3cc(S(=O)(=O)N4CCCC4)ccc32)CC1 | 9.66%
C=CCNC(=O)C1CC(=O)N(c2ccc(Br)cc2)C1 (centres unmarked) | 4.58%
COc1ccc(OC)c(S(=O)(=O)Nc2ccc(C(N)=O)cc2)c1 | 9.88%
O=C1OCCC1Sc1nnc(-c2ccco2)o1 (centres unmarked) | 13.7%
O=C(CCNS(=O)(=O)c1ccc(Br)s1)NCc1ccccc1 | 10.8%
CCC(=O)Nc1ccc2c(c1)Cc1cc(NC(=O)CC)ccc1-2 | 13.4%
COc1ccnc(Oc2ccccc2)c1C(=O)N/C=N/OCc1ccc(F)cc1Cl | 4.74%
CN(C)S(=O)(=O)c1cc(NC(=O)CSc2ncc(C(F)(F)F)cc2Cl)ccc1Cl | -0.599%
Cc1cc(C(=O)CSc2ncn[nH]2)c(C)n1-c1cccc(S(=O)(=O)N2CCOCC2)c1 | 9.69%
OC1CCCN(Cc2nc(Cc3ccccc3Cl)no2)C1 (centres unmarked) | 9.7%
N#Cc1c(NC(=O)Cn2cnc3ccccc3c2=O)oc(-c2ccccc2)c1-c1ccccc1 | 5.76%
COc1ccc(C(=O)N=c2sc3ccccc3n2C)cc1OC | 6.97%

Compound | hERG current change (%, negative = inhibition) at 1uM
COC(=O)[C@@H](NC(=O)N1CCC(C)CC1)C(C)C | 2.4%
COc1ccc(NC(=O)C2CC2)cc1OC1CCCC1 | 10.5%
CCCN(C(=O)c1cccs1)c1nnc(-c2ccncc2)s1 | 7.22%
CCC(=O)NCCSc1c[nH]c2ccccc12 | 5.02%
CCNC(=O)/C(C#N)=C/c1c(N2CCCCCC2)nc2ccccn2c1=O | 2.33%
O=C(N/C(=C/C=C/c1ccccc1)C(=O)N1CCCCC1)c1ccc([N+](=O)[O-])cc1 | -27.4%
CCc1nnc(NC(=O)C2CC(=O)N(C3CCCC3)C2)s1 (centres unmarked) | 13.5%
COc1ccc2c(c1)C(C)=CC(C)(C)N2S(=O)(=O)c1ccc(NC(C)=O)cc1 | 9.85%
CCOC(=O)C1C(=O)C(C(C)=O)C(=O)CC1CC(C)SCC (centres unmarked) | 7.64%
Cc1coc2c(C)c3oc(=O)c(CCC(=O)N[C@@H](C)C(=O)N[C@@H](Cc4ccccc4)C(=O)O)c(C)c3cc12 | 4.42%
C=CCN(c1nc(C)c(Br)c(OC)n1)S(=O)(=O)c1ccc(C)cc1 | 14.4%
COc1ccc(-c2ccc(-c3noc(-c4ccccc4)n3)c(OC)n2)cc1 | 0.351%
O=S(=O)(Nn1cnnc1)c1ccccc1 | 1.68%
Brc1ccc(-c2nnc3n2CCCCC3)cc1 | 3.62%
CC(=O)NCCc1ccc(C(=O)Cn2cnc3ccccc3c2=O)cc1 | 15%
COC(=O)CSc1nnc(-c2cccs2)n1-c1ccc(Cl)cc1 | -16%
COCCNC(=O)C(C#N)c1nc2ccccc2nc1N1CCCCCC1 (centres unmarked) | 3.63%
Cc1noc(C)c1S(=O)(=O)Nc1cccc(CO)c1 | 7.91%
CC(=O)C1=C(C)NC(C)=C(C(C)=O)C1c1ccccc1 | 6.75%
O=C(O)c1cc(=O)[nH]c2c(Cl)cccc12 | 3.95%
Cc1ccccc1-c1nnn(Cc2ccc(-c3nn[nH]n3)cc2)n1 | 5.38%
COC(=O)CSc1nc2sc3c(c2c(=O)n1C1CCCCC1)CCN(C)C3 | 6.3%
CC(=O)Nc1ccc(NC(=O)c2ccccc2CCc2ccccc2)cc1 | 3.98%

Compound | hERG current change (%, negative = inhibition) at 1uM
O=C(Cn1c(=O)oc2cc(S(=O)(=O)N3CCCCC3)ccc21)N1CCc2ccccc21 | 1.8%
O=c1c2ccccc2[nH]c(=S)n1CCc1ccccc1 | 17.9%
O=c1c([N+](=O)[O-])cccn1Cc1cccc(Br)c1 | 10.7%
Brc1ccccc1OCCCCn1cnc2ccccc21.Cl | 14.2%
COc1ccccc1NS(=O)(=O)c1cccc(C(=O)N2CC(C)OC(C)C2)c1 (centres unmarked) | 2.84%
O=C(Cn1c(C(F)(F)F)nc2ccccc21)Oc1cccc(C(F)(F)F)c1 | -5.22%
Cc1ccccc1CCN(C(=O)Cn1nnc2ccccc21)C(C(=O)NCC1CCCO1)c1nc2ccccc2n1C (centres unmarked) | 13.8%
Cc1[nH]c2ccccc2c1C(=O)CSc1n[nH]c(N)n1 | 1.64%
CC(=O)c1cccc(NC(=O)NCCc2ccc(Cl)cc2)c1 | 11.3%
Cc1cc(N2C(=O)C3CCC(c4ccccc4)CC3C2=O)no1 (centres unmarked) | 21.4%
Cn1c(C(=O)NCCc2ccccc2)cc(=O)n(C)c1=O | 3.57%
CN(C)CCNc1ncnc2c1cnn2-c1ccc(Cl)cc1 | 5.11%
O=c1cc(N2CCOCC2)[nH]c(=O)n1C1CCCCC1 | 15.4%
CCC(C)C(=O)Nc1ccc([N+](=O)[O-])cc1OC (centres unmarked) | 13.8%
O=C(CSc1ncnc2c1cnn2-c1ccccc1)Nc1ccc2c(c1)OCO2 | 16.6%
COc1ccc(C(=O)OCC(=O)c2ccc(Cl)s2)c(OC)c1OC | 11.8%
CN1C(=O)Cc2cc(S(=O)(=O)NCCc3ccc(Cl)cc3)ccc21 | -2.7%
Cc1ccc(-c2cc(C(=O)N3CCCC3)c3ccccc3n2)s1 | 13.1%
CCCCSc1nc(C)c(CC(=O)O)c(=O)[nH]1 | 10.1%
CC1(C)CC(=O)C(C=NCC2CCCO2)=C(O)C1 (centres unmarked) | 9.01%
O=C(N/N=C/c1ccco1)c1cc(-c2cccc3ccccc23)n[nH]1 | 9.96%
O=C(NC(=S)Nc1cccc(C(F)(F)F)c1)c1ccc2nonc2c1 | 13.4%
CCOC(=O)SC1=N/C(=C\c2ccc(N(C)C)cc2)C(=O)S1 | 9.35%
